Values of other authors in paper PMC10609526.
Entries with a single value are a further part of the results.

Target: NapA Tat signal peptide (Escherichia coli) (UniProt P33937)
Assay: ITC
Settings: pH 7.5

NapD, sequence (P0A9I5 whole entry): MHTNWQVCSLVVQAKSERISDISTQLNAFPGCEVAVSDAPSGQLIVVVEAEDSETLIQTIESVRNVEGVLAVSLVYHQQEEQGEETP
UniProt P33937, sequence (P33937 1-36): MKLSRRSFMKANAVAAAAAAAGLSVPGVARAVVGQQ

Kd (major NapD population): 140 nM
Kd (minor NapD population): 3 nM
Substance: NapD (from UniProt P0A9I5)
